Measurements from the supplement of paper PMC9446081.
The campaign covered roughly 39,000 compounds. About 220 (0.56%) showed activity. This is one part of the list.

test system: Escherichia coli K-12 BW25113; assay: relative growth (OD600 normalised to plate interquartile mean) (fraction); higher = less growth inhibition, active = 0.2 or less; details: 50 µM; LB; incubation time: overnight (16-24 h)
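Note: static incubation at 37 °C against the wild-type strain, values averaged over two biological replicates.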

Row | Compound | relative growth
1 | CN1CCN(C(=O)C[C@@H]2CC[C@H]3[C@@H](COc4ccc(NC(=O)c5cccs5)cc4C(=O)N3C)O2)CC1 | inactive: 1.02
2 | C[C@@H]1CN([C@@H](C)CO)C(=O)CCCn2nncc2CO[C@@H]1CN(C)C(=O)Nc1ccc(N2CCN(C)CC2)cc1 | inactive: 0.987
3 | C[C@@H]1CCCCO[C@@H](CN(C)C(=O)NC2CCCCC2)[C@@H](C)CN([C@H](C)CO)C(=O)c2cc(NS(=O)(=O)c3ccc(F)cc3)ccc2O1 | inactive: 0.983
4 | C[C@@H]1CN([C@@H](C)CO)C(=O)c2cc(NC(=O)NC3CCCCC3)ccc2O[C@@H]1CN(C)Cc1ccc(-c2ccccc2)cc1 | inactive: 1.02
5 | CC(C)NC(=O)N(C)C[C@@H]1Oc2c(NC(=O)C3CCCCC3)cccc2C(=O)N([C@@H](C)CO)C[C@@H]1C | inactive: 0.988
6 | C[C@@H]1CN([C@@H](C)CO)C(=O)Cc2cc(NC(=O)Nc3cccc4ccccc34)ccc2O[C@@H]1CN(C)C(=O)Nc1ccccc1 | inactive: 1.04
7 | Cc1noc(C)c1NC(=O)N(C)C[C@H]1OCCCC[C@@H](C)Oc2ccc(NC(=O)Nc3ccccc3)cc2C(=O)N([C@H](C)CO)C[C@@H]1C | inactive: 1.01
8 | C[C@H](CO)N1C[C@H](C)[C@H](CN(C)Cc2ccccc2)OCCCC[C@H](C)Oc2ccc(NC(=O)Nc3ccc4c(c3)OCO4)cc2C1=O | inactive: 0.989
9 | CCCNC(=O)N(C)C[C@@H]1Oc2cc(-c3ccc(C)cc3)ccc2S(=O)(=O)N([C@H](C)CO)C[C@H]1C | inactive: 1
10 | CCNC(=O)C[C@@H]1C=C[C@@H](NC(=O)C2CCOCC2)[C@@H](CO)O1 | inactive: 1.01
11 | Cc1ccc(S(=O)(=O)Nc2cccc3c2O[C@@H](CN(C)Cc2ccc(Oc4ccccc4)cc2)[C@@H](C)CN([C@H](C)CO)C3=O)cc1 | inactive: 1.02
12 | Cc1noc(C)c1CO | inactive: 1.01
13 | C[C@@H]1CN([C@H](C)CO)C(=O)c2cccc(NS(C)(=O)=O)c2O[C@@H]1CN(C)C(=O)Nc1ccccc1 | inactive: 0.995
14 | COC(=O)[C@@H]1CC(=O)O[C@H](C)C/C=C/C=C/[C@H](O)[C@H](C)C[C@H](CC=O)[C@H](O[C@H]2O[C@H](C)[C@@H](O[C@H]3C[C@@](C)(O)[C@@H](OC(=O)CC(C)C)[C@H](C)O3)[C@H](N(C)C)[C@H]2O)[C@H]1OC | inactive: 0.992
15 | C[C@H]1CCCCO[C@@H](CN(C)C(=O)NC2CCCCC2)[C@@H](C)CN([C@@H](C)CO)C(=O)c2cc(NC(=O)c3ccncc3)ccc2O1 | inactive: 1
16 | C[C@H]1CCCCO[C@H](CN(C)C(=O)c2ccccc2)[C@@H](C)CN([C@@H](C)CO)C(=O)c2cc(NC(=O)Nc3ccc(F)cc3)ccc2O1 | inactive: 0.938
17 | COc1ccc(S(=O)(=O)N2C[C@@H](O)COC[C@H]3O[C@H](CC(=O)NCCCN(C)C)CC[C@@H]32)cc1 | inactive: 1.02
18 | C[C@H](CO)N1C[C@H](C)[C@H](CN(C)S(C)(=O)=O)Oc2ncc(C#CCN(C)C)cc2C1=O | inactive: 1
19 | C[C@@H]1CN([C@@H](C)CO)S(=O)(=O)c2ccc(C#CCN(C)C)cc2O[C@@H]1CN(C)C | inactive: 0.987

Row | Compound | relative growth
20 | C[C@@H]1CN([C@H](C)CO)C(=O)c2cc(NC(=O)NC3CCCCC3)ccc2O[C@H]1CN(C)Cc1ccc(Oc2ccccc2)cc1 | inactive: 0.921
21 | C[C@H]1CN([C@@H](C)CO)C(=O)Cc2cc(NC(=O)CCCCCC(=O)Nc3ccccc3N)ccc2O[C@H]1CN(C)Cc1ccc(Cl)c(Cl)c1 | inactive: 0.979
22 | COc1ccc(CN(C)C[C@H]2Oc3ccc(NC(=O)Nc4ccc(C(F)(F)F)cc4)cc3C(=O)N([C@H](C)CO)C[C@@H]2C)cc1 | inactive: 0.976
23 | CC(C)N(CCCNC(=O)Nc1ccc(C(C)(C)C)cc1)C[C@H]1O[C@@H](n2ccc3c(N)ncnc32)[C@H](O)[C@@H]1O | inactive: 0.977
24 | CCOc1ccc(C(=O)Nc2ccc(S(=O)(=O)N3CCCC[C@@H]3c3cccnc3)cc2)cc1OCC | inactive: 1.01
25 | C[C@@H]1CCCCO[C@@H](CN(C)Cc2ccc(C(=O)O)cc2)[C@H](C)CN([C@H](C)CO)C(=O)c2cc(NC(=O)Nc3ccc(C(F)(F)F)cc3)ccc2O1 | inactive: 0.96
26 | Nc1cc(CO)ccn1 | inactive: 0.995
27 | CNC(=O)c1c(O)c2ccccc2n(C)c1=O | inactive: 1.01
28 | COc1ccccc1[C@@H](NC(=O)C1CCN(CCn2cnc3c2c(=O)n(C)c(=O)n3C)CC1)c1ccccn1 | inactive: 0.988
29 | C[C@@H]1CN([C@H](C)CO)C(=O)c2cc(NS(=O)(=O)c3ccc(Cl)cc3)ccc2O[C@@H](C)CCCCO[C@@H]1CN(C)C(=O)C1CCCCC1 | inactive: 0.99
30 | Cl.NC1C(O)OC(CO)C(O)C1O (stereo not drawn) | inactive: 1.19
31 | C[C@@H]1CCCCO[C@H](CN(C)C(=O)Cc2ccccc2)[C@@H](C)CN([C@H](C)CO)C(=O)c2cc(NS(=O)(=O)c3ccc(Cl)cc3)ccc2O1 | inactive: 1.03
32 | COc1ccc(NC(=O)N(C)C[C@@H]2Oc3c(NC(=O)Nc4ccc(C(F)(F)F)cc4)cccc3C(=O)N([C@H](C)CO)C[C@H]2C)cc1 | inactive: 0.798
33 | CS(=O)(=O)NCc1cnc2n1CCN(C[C@H]1CCOC1)CC2 | inactive: 0.996
34 | C[C@@H]1CN([C@H](C)CO)S(=O)(=O)c2ccc(C#Cc3ccncc3)cc2O[C@@H]1CN(C)C(=O)C1CCC1 | inactive: 0.979
35 | COC(=O)c1[nH]c(C(=O)OC)c(O)c1O | inactive: 1
36 | CC(C)CC#Cc1ccc2c(c1)O[C@H](CN(C)C(=O)c1cnccn1)[C@H](C)CN([C@@H](C)CO)S2(=O)=O | inactive: 0.945
37 | C[C@@H]1CN([C@H](C)CO)C(=O)c2cc(NC(=O)Nc3ccc4c(c3)OCO4)ccc2O[C@@H](C)CCCCO[C@H]1CN(C)Cc1ccc2c(c1)OCO2 | inactive: 1.01
38 | C[C@@H]1CCCCO[C@H](CN(C)C(=O)CCC(F)(F)F)[C@H](C)CN([C@@H](C)CO)C(=O)c2cc(NC(=O)NC3CCCCC3)ccc2O1 | inactive: 1.01
